PubChem BioAssay AID1963576 (National Center for Advancing Translational Sciences (NCATS), 2024)
Among all 46,000 compounds or so, about 60 (0.1%) were called active. Inconclusive results (about 3%) are left out. Calls come from the whole dose curve; as a rule, active = well fitted inhibition curve with a large enough effect; inconclusive = small, poorly fitted or top-dose-only effect; inactive = no such curve, though single readings can be large or run the other way. The list shows a part of the results.

Experiment: Primary qHTS assay for Inhibitors of ovarian cancer metastasis using an organotypic tumor microenvironment (TME) model.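 For activity change, negative = inhibition: plate controls were DMSO wells for no effect and tomatine positive control wells for full effect.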 Note: nearly all actives have a fitted effect of over 65% in size.
Details: SKOV3ip1-GFP adhesion/invasion on 3D omental model, fluorescence; series mostly up to 45.8 µM; activity change, negative = inhibition: at the top concentration
In short: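 A 3D layer of primary human omental fibroblasts, mesothelial cells, fibronectin and collagen I, grown 48 hr, received SKOV3ip1-GFP cells in serum-free medium plus compounds at 0.36-46 umol/L. After 2 hr RT and 16 hr 37 C, fixed adherent GFP cells were counted; normalized to DMSO and tomatine.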

Activity change, negative = inhibition, inactive:
CCCCN(C)C(=O)C1CCC(Cn2c(=O)[nH]c3ccsc3c2=O)CC1 (configuration not stated) 29.3%
Cc1ccc2c(CC(=O)Nc3ccc(S(=O)(=O)N4CCCC(C)C4)cc3)coc2c1 (configuration not stated) -21.1%
O=C(NCCc1ccccc1)c1ccc2c(c1)CCN2S(=O)(=O)c1ccc(Cl)cc1 0.0812%
CC1CCN(S(=O)(=O)c2ccc3c(c2)N(CC(=O)NCCN(C)C)C(=O)CS3)CC1 11.3%
O=C(O)c1ccc2c(c1)N(Cc1ccc(F)cc1)C(=O)c1ccccc1S2=O (configuration not stated) 25.1%
Fc1ccc(-n2nc(-c3ccccc3)c3cnc4ccccc4c32)cc1Cl 2.85%
Cc1oc2ncnc(N3CCOCC3)c2c1C(=O)Nc1ccc(Br)cc1F -9.52%
OC(c1ccccc1)c1nc2ccccc2n1Cc1c(F)cccc1Cl (configuration not stated) 14.6%
O=C(Nc1ccc(Cl)cc1F)c1cc(S(=O)(=O)NC2CCCCCC2)ccc1F 11.8%
CCCc1nn2c(=O)cc(COC(=O)c3ccccc3NC(=O)c3ccc(OCC)cc3)nc2s1 4.28%
CCc1ccc(NC(=O)CN2C(C(=O)OC)=C(c3ccccc3)c3ccccc3S2(=O)=O)cc1 -28.6%
CC(C)CCNC(=O)C1CCC(CNS(=O)(=O)c2cccc3nsnc23)CC1 (configuration not stated) -4.3%
COCCNC(=O)CSc1nc(-c2ccc(C)cc2)[nH]c1-c1ccc(OC)cc1 7.34%
O=C(CSc1nc(=O)n(Cc2ccccn2)c2c1CCC2)Nc1cccc(Cl)c1 5.73%
Cc1ccc(-c2c3c(=O)n(C)c(=O)n(C)c3c3c(C)nc4ccccc4n23)cc1 -9.04%
Cc1cc(N2CCN(c3ccc(F)cc3)CC2)n2cnnc2n1 1.93%
COc1ccc(NC(=O)Cn2ccn(-c3ccc(C)c(C)c3)c(=O)c2=O)cc1Cl -4.82%
Cc1cccc(-c2nc3cc(NC(=O)COc4ccccc4F)ccc3o2)c1 -9.87%
Cc1ccc(C(=O)c2cn(Cc3ccccc3)c3ccccc3c2=O)cc1 16.2%
Cc1cccc(NC(=O)c2oc3ccccc3c2NC(=O)Cc2coc3cc(C)cc(C)c23)c1 8.45%
Cc1ccccc1OCC(=O)Nc1ccccc1C(=O)OCc1cc(=O)n2nc(C3CC3)sc2n1 -0.317%
COc1ccc(N2CCN(C(=O)Nc3ccccc3Cl)CC2)cc1 -3.6%
CCc1ccccc1NC(=O)Cn1c(=O)n(CCc2ccccc2)c(=O)c2ccccc21 5.54%
CCCC(=O)n1nc(-c2cccnc2)nc1NCc1ccccc1 0.163%
CCOc1ccc(NC(=O)CCC(=O)N2CCSc3ccccc32)cc1 6.82%
Clc1ccccc1-c1nnc(SCc2nc(-c3ccccc3)no2)n1-c1ccccc1 -3.5%
COc1cccc(NC(=O)CSC2=Nc3ccccc3C3=NC(CC(=O)NCc4ccccc4OC)C(=O)N23)c1 (configuration not stated) 0.847%
CCCCNC(=O)CCSc1nc(-c2ccc3c(c2)OCO3)cc(C(F)(F)F)n1 -16.3%
COc1ccc(NS(=O)(=O)c2c(C)nc3scc(C)n3c2=O)cc1 -2.41%
Cc1ccnc2nc(NC(=O)c3ccccc3Cl)nn12 -6.7%
COc1ccc(C2C=C(c3ccccc3)Nc3nc(NC(=O)/C=C/c4ccccc4OC)nn32)cc1 (configuration not stated) -2.42%
Cc1cccc(OCC(=O)N(Cc2ccc(N(C)C)cc2)Cc2ccco2)c1C 4.33%
CCOc1ccc(NC(=O)c2c(NCc3cccs3)sc3c2CCCCC3)cc1 24.5%
COC(=O)c1scc(-c2ccccc2)c1S(=O)(=O)Nc1ccc(C)c(Cl)c1 -13.5%
O=C(NCC1CCCCN1)c1cc(OCC(F)(F)F)ccc1OCC(F)(F)F (configuration not stated) 9.92%
CC(=O)c1cc(-c2ccccc2)n(CCC(=O)NC2CCCCC2)c1C -8.12%
CC12CN3CC(c4ccccc4)(CN(C1)C3c1ccc(Cl)cc1)C2=O (configuration not stated) -8.99%
CCc1ccc(S(=O)(=O)c2nnn3c2nc(NC(C)C)c2cc(Cl)ccc23)cc1 1.58%
CCC(=O)N1CCc2cc(Br)cc(S(=O)(=O)N3CCCC(C(=O)Nc4ccc(OC)cc4OC)C3)c21 (configuration not stated) 6.46%
Cc1cccc(N(CC(=O)N(C)Cc2ccccc2)S(=O)(=O)c2ccccc2)c1C 5.65%
COc1cc(N2CCC(N3CCN(C)CC3)CC2)ccc1Nc1ncc(Cl)c(Nc2ccccc2S(=O)(=O)C(C)C)n1 -6.59%
COc1ccc(OC)c(CNC(=O)C2CCN(S(=O)(=O)c3ccc4[nH]c(=O)oc4c3)CC2)c1 4.61%
O=C(Nc1ccc(C(=O)OCc2cc(=O)n3ccsc3n2)cc1)c1cccc(F)c1 -1.27%
Cc1cc(C)cc(NC(=O)N2CCC(N3CCN(Cc4ccccc4)C(=O)C3=O)CC2)c1 2.37%
CC(C)Oc1ccc(CNC(=O)c2cccc(NC(=O)c3nsc4ccccc34)c2)cc1 -5.39%
COc1ccc(N2Cc3cccc(C(=O)Nc4cccc(F)c4)c3C2=O)cc1 3.34%
Cn1c(C(=O)N2CCC(C(=O)N3CCN(c4ccccc4)CC3)CC2)cc2sccc21 -6.48%
Cc1nnc(N2CCN(c3cccc(C(F)(F)F)c3)CC2)c2c1nnn2Cc1ccccc1 0.713%
Cc1ccc(CNC(=O)c2c[nH]n3c(=O)c(Cc4ccc(F)cc4Cl)c(C)nc23)cc1 7.3%
CN(C)c1ccc(C(=O)Nc2ccc(-c3nc4ccccc4o3)cc2)cc1 -0.113%
Cc1ccc(-c2cc(NC(=O)C(C)Oc3ccccc3F)on2)cc1 (configuration not stated) -3.44%
Cc1cc(NC(=O)C2CCCN(S(=O)(=O)c3cn(C)cn3)C2)ccc1Br (configuration not stated) 25.6%
Cc1noc2ncnc(NCc3ccc(Cl)cc3)c12 -25.7%
COc1cc(OC)c(C=CS(=O)(=O)Cc2ccc(OC)c(NCC(=O)O)c2)c(OC)c1 24.3%
CC(C)c1ccc(C2=NC(c3ccncc3)=Nc3ccc(F)cc3N2)cc1 1.91%
Cc1ccc(NC(=O)c2ccc(N(Cc3ccccc3)S(C)(=O)=O)cc2)cc1 -0.306%
C[C@@H](O)[C@H]1C(=O)N2C(C(=O)OCOC(=O)C(C)(C)C)=C(SC3CN(C4=NCCS4)C3)[C@H](C)[C@H]12 -9.47%
CC(=O)O[C@]1(C(C)=O)CC[C@H]2[C@@H]3C=C(Cl)C4=CC(=O)[C@@H]5C[C@H]5[C@]4(C)[C@@H]3CC[C@@]21C -21.4%
CCOC(=O)c1ccc(N2C(=O)c3n[nH]c(-c4cccs4)c3C2c2ccc(OC)cc2OC)cc1 (configuration not stated) 32.6%
Cc1ccc(C(=O)c2oc3ccccc3c2NC(=O)C(C)Oc2ccccc2Cl)cc1 (configuration not stated) 7.14%
CC(C)c1ccc2oc(-c3ccc(Cl)c(NC(=O)Cc4ccccc4)c3)nc2c1 3.08%
CCC1CCc2c(sc(NC(=O)C3c4ccccc4Oc4ccccc43)c2C(=O)OC)C1 (configuration not stated) -0.662%
COc1ccc(OC)c(CCNC(=O)c2nn(C)c3c2CSc2ccccc2-3)c1 13%
CCOc1ccc(Cn2c(CNS(=O)(=O)c3ccc(CC)cc3)nc3cccnc32)cc1 8.11%
CCCn1cc(S(=O)(=O)c2ccc(CC)cc2)c(=O)c2cc(F)c(N3CCN(C)CC3)cc21 8.91%
COc1ccc(NC(=O)c2c(NCc3cccs3)sc3c2CCCCC3)c(OC)c1 19.7%
O=C(Cn1cc(SCc2ccccc2F)c2ccccc21)N1CCCC1 -4.78%
COc1ccc2c(c1)CC(C(=O)Nc1ccc(OC)cc1OC)CO2 (configuration not stated) 18.9%
CCCOc1ccc2nc(NC(=O)OC)[nH]c2c1 9.28%
O=S(=O)(c1ccc(OC(F)(F)F)cc1)N1CCC(c2nc3ccccc3s2)CC1 -3.03%
CCOc1ccc(OCC)c(Nc2nc3ccc(C(=O)c4ccccc4)cc3n3cnnc23)c1 -0.608%
Cn1c(=O)c2cc(C(=O)Nc3cccc(C#N)c3)sc2c2ccccc21 1.6%
CCC(=O)Nc1ccccc1-c1nc2ccccc2n(CC(=O)Nc2ccc(C)c(C)c2)c1=O 2.4%
COc1ccc(Cl)cc1NC(=O)c1sc2nc(-c3ccc(OC)c(OC)c3)ccc2c1N 6.6%
COc1ccc(CCNC(=O)CSCc2nc(-c3cccc(C)c3)oc2C)cc1OC 5.36%
O=C(NCc1ccccc1)c1ccc2c(c1)N(Cc1ccc(F)cc1)CCS2 0.959%

outcome, inactive:
O=C(Cn1c(=O)c2cccn2c2ccc(F)cc21)Nc1cccc(F)c1
COc1ccccc1CNS(=O)(=O)c1c(C)nc2sc(C)cn2c1=O
COc1ccccc1CNc1ncnc2c1nc1n2CCCC1
Cc1ccc(Cl)cc1NC(=O)c1cc(S(=O)(=O)N2CCOCC2)cn1C
CCOc1ccc(-c2cc3c(=O)n(CC(=O)NCc4ccccc4)ccn3n2)cc1
O=C(NCCc1ccc(Cl)cc1)c1ccc(CSCc2ccc(Cl)cc2)o1
O=c1oc2ccc(Cl)cc2cc1-c1cn2c(n1)sc1ccccc12
CCOC(=O)N1CCN(S(=O)(=O)N2CCCC(C(=O)NCc3ccc(OC)cc3OC)C2)CC1 (configuration not stated)
O=C(Nc1ccc2nc(SCC(=O)N3CCOCC3)sc2c1)c1cccc(F)c1
COc1ccccc1CNC(=O)c1ccc(CS(=O)c2ccccc2Cl)o1 (configuration not stated)
COc1ccc(N2CCN(c3oc(/C=C/c4ccccc4OC)nc3C#N)CC2)cc1
COc1ccc(NC(=O)C(=O)NCc2ccco2)c(OC)c1
CCOc1ccc(CC(=O)Nc2c(C(=O)c3ccc(F)cc3)oc3ccc(Cl)cc23)cc1OCC
O=C(Nc1nc2c(s1)CCCC2)c1ccccc1F
CCOC(=O)N1CCC(NC(=O)c2ccc3c(c2)N(Cc2ccc(Cl)cc2)C(=O)c2ccccc2S3(=O)=O)CC1
CNC(=O)c1ccc2nc(Cc3ccccc3)oc2c1
CCOC(=O)c1c(S(=O)(=O)N2CCN(c3cccc(C(F)(F)F)c3)CC2)c(C)n(C)c1C
O=C(Nc1ccc(Br)cc1F)c1cc2nc(-c3ccco3)cc(C(F)(F)Cl)n2n1
Cc1cc(Br)ccc1NC(=O)CCNS(=O)(=O)c1cccc2nonc12
COc1ccc(C2=NN(CC(=O)NCCc3ccccc3)C(=O)CC2)cc1
CCc1ccc(NC(=O)C2CCN(S(=O)(=O)c3c(C)noc3C)CC2)cc1
